Assay results from PubChem BioAssay (NCI).
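How tested: cells in 96-well plates exposed to compound for 48 hours at five concentrations. Abbreviation: GI50, concentration required for 50% inhibition of growth. TGI denotes the concentration required for complete inhibition of growth.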 Peptide text beside a SMILES is read from it.

System: NCI-H322M lung
Test: NCI-60 cell line screen, 48 h

Cc1c(Cl)ccc2c1NC(=O)C2(O)CC(=O)c1cccc2ccccc12 (stereo unspecified) was tested. Which TGI did it give?
The TGI was over 100 µM.

How did the TGI turn out when NC(=O)CNC(=O)C1CC(O)CN1C(=O)OCc1ccccc1 (stereo unspecified) (HELM PEPTIDE1{[O=C(OCc1ccccc1)[*:2]].[O=C(C1CC(O)CN1[*:1])[*:2]].G.[am]}$$$$V2.0) was run?
The TGI was over 100 µM.

CC(=O)OCC12C(OC(C)=O)C(=O)C3C(OC(C)=O)C14OC3(C)COC(=O)c1cccnc1C(C)C(C)C(=O)OC(C(OC(C)=O)C2OC(C)=O)C4(C)O (stereo unspecified) was tested. Which TGI did it give?
The TGI was over 100 µM.

CCO/C(O)=C(/C(=N)N1CCOCC1)C(=O)Nc1cccc(Cl)c1 was tested. Which TGI did it give?
Its TGI is over 100 µM.

S=c1[nH]nc(C23CC4CC(CC(C4)C2)C3)n1-c1ccc(Cl)cc1 was tested. Which TGI did it give?
The TGI was 68.3 µM.

With C/C1=C\CC[C@@]2(C)O[C@@H]2C[C@@H]2[C@H](C/C(C)=C/CC1)OC(=O)C21CC1 as the molecule, how does the TGI read?
The TGI was over 100 µM.

With COC(=O)C(C)(C)NC(=O)C(Cc1ccccc1)Nc1ncnc2c1ncn2-c1ccc(OC)cc1 (stereo unspecified) as the molecule, how does the TGI read?
The TGI was over 100 µM.

Which TGI does the source give for NC1CC(=O)c2ccccc21 (stereo unspecified) here?
The TGI was over 100 µM.

Which GI50 does the source give for CN(C)c1ccc(N=Nc2ccc(Br)cn2)c(O)c1 here?
Its GI50 is 0.497 µM.

And the TGI?
Its TGI is over 100 µM.

For CC(C)S(=O)(=O)ON1C(=O)c2ccc(N(C)C)cc2C1=O, which TGI is on record?
Its TGI is over 79.3 µM.

Clc1ccc(Cc2nc3cc(Cl)ccc3o2)cc1 was tested. Which TGI did it give?
Its TGI is over 100 µM.

For CC1(C)CC(/C=C2/OC(=O)c3ccccc32)=C(C(N)=O)C(=O)O1, which TGI is on record?
Its TGI is over 100 µM.

Which results are given for NC(=O)c1cc(Cl)ccc1NC(=O)COc1ccccc1?
GI50: 7.09 µM; TGI: > 100 µM

O=C1CC2(CCC(O)(c3ccco3)C(C(=O)c3ccco3)C2)C(=O)c2ccccc2N1 (stereo unspecified) was tested. Which TGI did it give?
The TGI was over 100 µM.

COC1OC(Cn2c(C)nc(Br)c2Br)C(O)C(O)C1O (stereo unspecified) was tested. Which TGI did it give?
The TGI was over 100 µM.

With COc1ccc(CCCNC(=O)Cc2ccccc2CO)cc1OC as the molecule, how does the TGI read?
The TGI was over 100 µM.

How did the TGI turn out when COc1c(Cl)nc2ccccc2c1N=[N+]=[N-] was run?
Its TGI is over 100 µM.

How did the TGI turn out when COC(=O)C1(C(=O)OC)N=C(C)OC1c1ccoc1 (stereo unspecified) was run?
The TGI was over 100 µM.

With COc1ccc(NC(=O)CC(=O)NN2C(=O)/C(=C/c3ccc(N(CCC#N)CCC#N)cc3C)N=C2/C=C\c2ccccc2)cc1 as the molecule, how does the TGI read?
The TGI was over 100 µM.

Which TGI does the source give for C=C[C@]1(C)C[C@@H](OC(=O)CO)[C@@]2(C)[C@H](C)CC[C@]3(CCC(=O)[C@H]32)[C@@H](C)[C@@H]1O here?
The TGI was over 100 µM.

COC(=O)CNC(=O)CCSc1nnc(COc2ccc(Cl)cc2)n1-c1ccccc1 was tested. Which TGI did it give?
The TGI was 85 µM.

Which TGI does the source give for O=C(O)c1c[nH]c2cc(OCc3ccccc3)ccc2c1=O here?
The TGI was 35.1 µM.

For N#CC(C#N)=C1/C(=C/C=C/C=C/C=C/c2ccc(N3CCCCC3)s2)S(=O)(=O)c2ccccc21, which TGI is on record?
Its TGI is over 100 µM.

With Nc1ncnc2c1ncn2C1OC(CO)C2OC21 (stereo unspecified) as the molecule, how does the TGI read?
Its TGI is over 100 µM.

O=[N+]([O-])c1ccc2c3c1[C@H]1O[C@H]1c1cccc(c1-3)[C@@H]1O[C@H]21 was tested. Which TGI did it give?
The TGI was 15.2 µM.

With Brc1cccc(Nc2ncnc3sc4c(c23)CCC2(C4)OCCO2)c1 as the molecule, how does the TGI read?
The TGI was over 100 µM.

Which GI50 does the source give for CCOC(=O)C#Cc1c(C(=O)OCC)nnn1Cc1ccc(C(F)(F)F)cc1 here?
The GI50 was 16 µM.

What about the TGI of the same molecule?
The TGI was 30.6 µM.

COc1ccc(NC=O)c(C(=O)CCNC(C)=O)c1 was tested. Which TGI did it give?
Its TGI is over 100 µM.

For Cc1cc(C)nc(NS(=O)(=O)c2ccc(Nc3c4ccccc4nc4c(C(=O)N5CCN(CCO)CC5)ccc(Cl)c34)cc2)n1, which TGI is on record?
Its TGI is over 100 µM.

How did the TGI turn out when C=CCCC1CCCCNC1=S (stereo unspecified) was run?
The TGI was over 10 µM.

With N#Cc1c(N)c2c(c(-c3ccccc3)c1-c1ccccc1)C(=O)N(NC(=S)Nc1ccccc1)C2=O as the molecule, how does the TGI read?
The TGI was over 100 µM.

How did the TGI turn out when CS(=O)(=O)c1ccc(NNc2cc(=O)[nH]c(=O)[nH]2)cc1 was run?
The TGI was over 100 µM.

Which TGI does the source give for CCOC(=O)/C=C(\C)c1ccc(Cl)cc1 here?
The TGI was over 100 µM.

CC(C)c1nc(Cl)nc(Cl)c1Cl was tested. Which TGI did it give?
Its TGI is 2.78 µM.

For CC12C=C[C@]3(CC[C@@H]4[C@@](C)(CO)CCC[C@]4(C)C3CC1)C2 (stereo partly specified), which TGI is on record?
The TGI was over 55.7 µM.

With CCCC12Cc3c(OC)ccc(OC)c3CC(Cc3c(OC)ccc(OC)c31)C2=O (stereo unspecified) as the molecule, how does the TGI read?
The TGI was over 100 µM.

Cc1ccc(/C(=C/C=C(/C#N)C(N)=O)Sc2ncnn2C)cc1 was tested. Which GI50 did it give?
The GI50 was 18.9 µM.

What about the TGI of the same molecule?
The TGI was 51.2 µM.

With Nc1c(C(=O)c2cccc(-c3ccncc3)c2)cnn1-c1ccc(F)cc1 as the molecule, how does the GI50 read?
Its GI50 is over 25 µM.

What about the TGI of the same molecule?
The TGI was over 25 µM.

With COc1ccc2c(c1)C(=O)c1c-2c(=O)n(CCCCCCC(=O)NO)c2ccccc12 as the molecule, how does the GI50 read?
The GI50 was 0.777 µM.

And the TGI?
The TGI was 21.7 µM.

Which TGI does the source give for C/C(=C1/N=C(c2cc([N+](=O)[O-])ccc2Cl)N(c2ccc(Br)cc2)C1=O)c1cc2ccccc2oc1=O here?
Its TGI is over 100 µM.
